Test results published in paper PMC9911399, “Two distinct binding modes provide the RNA-binding protein RbFox with extraordinary sequence specificity”.
Residue numbers refer to the chain shown, from its start. Some of the results follow.

T1: RBFOX1 RRM (Homo sapiens, UniProt Q9NWB1 109-208)
T1 sequence: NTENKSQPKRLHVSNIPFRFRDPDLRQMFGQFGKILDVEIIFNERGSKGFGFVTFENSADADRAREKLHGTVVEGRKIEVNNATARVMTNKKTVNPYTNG

B1: AGCAAAC (DNA:RNA)
RNA: GGGAGACCGGAAUUCAGAUUGUCCAGCAAACUUAAAUCCCGUCGUAGCCACCA
DNA 1: CAATCTGAATTCCGGTCTCCC
DNA 2: TGGTGGCTACGACGGGATT
B2: GGUAGCA (DNA:RNA)
RNA: B1 RNA with A25G, C27U, A29G, A30C, C31A
DNA 1: CAATCTGAATTCCGGTCTCCC
DNA 2: TGGTGGCTACGACGGGATT
B3: GUCUAGG (DNA:RNA)
RNA: B1 RNA with A25G, G26U, A28U, A30G, C31G
DNA 1: CAATCTGAATTCCGGTCTCCC
DNA 2: TGGTGGCTACGACGGGATT
B4: CGUUGAA (DNA:RNA)
RNA: B1 RNA with A25C, C27U, A28U, A29G, C31A
DNA 1: CAATCTGAATTCCGGTCTCCC
DNA 2: TGGTGGCTACGACGGGATT
B5: AUCAAUG (DNA:RNA)
RNA: B1 RNA with G26U, A30U, C31G
DNA 1: CAATCTGAATTCCGGTCTCCC
DNA 2: TGGTGGCTACGACGGGATT
B6: CCCCAGC (DNA:RNA)
RNA: B1 RNA with A25C, G26C, A28C, A30G
DNA 1: CAATCTGAATTCCGGTCTCCC
DNA 2: TGGTGGCTACGACGGGATT
B7: CGGCGUC (DNA:RNA)
RNA: B1 RNA with A25C, C27G, A28C, A29G, A30U
DNA 1: CAATCTGAATTCCGGTCTCCC
DNA 2: TGGTGGCTACGACGGGATT
B8: AUUACUU (DNA:RNA)
RNA: B1 RNA with G26U, C27U, A29C, A30U, C31U
DNA 1: CAATCTGAATTCCGGTCTCCC
DNA 2: TGGTGGCTACGACGGGATT
B9: CCAAAUC (DNA:RNA)
RNA: B1 RNA with A25C, G26C, C27A, A30U
DNA 1: CAATCTGAATTCCGGTCTCCC
DNA 2: TGGTGGCTACGACGGGATT
B10: GUCAGGC (DNA:RNA)
RNA: B1 RNA with A25G, G26U, A29G, A30G
DNA 1: CAATCTGAATTCCGGTCTCCC
DNA 2: TGGTGGCTACGACGGGATT
B11: CCAGAAU (DNA:RNA)
RNA: B1 RNA with A25C, G26C, C27A, A28G, C31U
DNA 1: CAATCTGAATTCCGGTCTCCC
DNA 2: TGGTGGCTACGACGGGATT
B12: UAGUUCC (DNA:RNA)
RNA: B1 RNA with A25U, G26A, C27G, A28U, A29U, A30C
DNA 1: CAATCTGAATTCCGGTCTCCC
DNA 2: TGGTGGCTACGACGGGATT
B13: CCCAAAU (DNA:RNA)
RNA: B1 RNA with A25C, G26C, C31U
DNA 1: CAATCTGAATTCCGGTCTCCC
DNA 2: TGGTGGCTACGACGGGATT
B14: GAGUGCA (DNA:RNA)
RNA: GGGAGACCGGAAUUCAGAUUGUCCGAGUGCAUUAAAUCCCGUCGUAGCCACCA
DNA 1: CAATCTGAATTCCGGTCTCCC
DNA 2: TGGTGGCTACGACGGGATT
B15: CCCAUUA (DNA:RNA)
RNA: B1 RNA with A25C, G26C, A29U, A30U, C31A
DNA 1: CAATCTGAATTCCGGTCTCCC
DNA 2: TGGTGGCTACGACGGGATT
B16: CCAAAAA (DNA:RNA)
RNA: B1 RNA with A25C, G26C, C27A, C31A
DNA 1: CAATCTGAATTCCGGTCTCCC
DNA 2: TGGTGGCTACGACGGGATT
B17: GGCCAAC (DNA:RNA)
RNA: B1 RNA with A25G, A28C
DNA 1: CAATCTGAATTCCGGTCTCCC
DNA 2: TGGTGGCTACGACGGGATT
B18: GCCGACA (DNA:RNA)
RNA: B14 RNA with A26C, G27C, U28G, G29A
DNA 1: CAATCTGAATTCCGGTCTCCC
DNA 2: TGGTGGCTACGACGGGATT
B19: AACGAAC (DNA:RNA)
RNA: B1 RNA with G26A, A28G
DNA 1: CAATCTGAATTCCGGTCTCCC
DNA 2: TGGTGGCTACGACGGGATT
B20: AAAUGUU (DNA:RNA)
RNA: B14 RNA with G25A, G27A, C30U, A31U
DNA 1: CAATCTGAATTCCGGTCTCCC
DNA 2: TGGTGGCTACGACGGGATT
B21: AUACCAG (DNA:RNA)
RNA: B1 RNA with G26U, C27A, A28C, A29C, C31G
DNA 1: CAATCTGAATTCCGGTCTCCC
DNA 2: TGGTGGCTACGACGGGATT
B22: CAUUGAA (DNA:RNA)
RNA: B14 RNA with G25C, G27U, C30A
DNA 1: CAATCTGAATTCCGGTCTCCC
DNA 2: TGGTGGCTACGACGGGATT
B23: UAGUACA (DNA:RNA)
RNA: B14 RNA with G25U, G29A
DNA 1: CAATCTGAATTCCGGTCTCCC
DNA 2: TGGTGGCTACGACGGGATT
B24: AUUAUUC (DNA:RNA)
RNA: B1 RNA with G26U, C27U, A29U, A30U
DNA 1: CAATCTGAATTCCGGTCTCCC
DNA 2: TGGTGGCTACGACGGGATT
B25: UAUAGAA (DNA:RNA)
RNA: B14 RNA with G25U, G27U, U28A, C30A
DNA 1: CAATCTGAATTCCGGTCTCCC
DNA 2: TGGTGGCTACGACGGGATT
B26: UUGUGAA (DNA:RNA)
RNA: B14 RNA with G25U, A26U, C30A
DNA 1: CAATCTGAATTCCGGTCTCCC
DNA 2: TGGTGGCTACGACGGGATT
B27: GUAUUCC (DNA:RNA)
RNA: B14 RNA with A26U, G27A, G29U, A31C
DNA 1: CAATCTGAATTCCGGTCTCCC
DNA 2: TGGTGGCTACGACGGGATT
B28: CACAGGU (DNA:RNA)
RNA: B1 RNA with A25C, G26A, A29G, A30G, C31U
DNA 1: CAATCTGAATTCCGGTCTCCC
DNA 2: TGGTGGCTACGACGGGATT
B29: GGCUUCU (DNA:RNA)
RNA: B14 RNA with A26G, G27C, G29U, A31U
DNA 1: CAATCTGAATTCCGGTCTCCC
DNA 2: TGGTGGCTACGACGGGATT
B30: GGUCAGA (DNA:RNA)
RNA: B1 RNA with A25G, C27U, A28C, A30G, C31A
DNA 1: CAATCTGAATTCCGGTCTCCC
DNA 2: TGGTGGCTACGACGGGATT
B31: AUUGCCU (DNA:RNA)
RNA: B1 RNA with G26U, C27U, A28G, A29C, A30C, C31U
DNA 1: CAATCTGAATTCCGGTCTCCC
DNA 2: TGGTGGCTACGACGGGATT

The binders below were run against T1, RBFOX1 RRM (assay: EMSA; HiTS-Eq, 1 nM pool, 10 min; buffer printed only for the single-RNA assays: 10 mM Tris pH 7.5, 150 mM NaCl, 3.4 mM EDTA, 0.001% NP-40, 30 C). Conditions: tags: His6 N-terminal (pET28a); label: 5' 32P.
Summary of the method: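 These values rest on relative association constants, computed from read-count changes of each RNA species versus the control reaction and normalised to the cognate motif. Reads came from free RNA recovered by 8% native PAGE after purified RbFox RRM (wild type or mutant) at increasing concentrations was equilibrated for 10 min in 50 µL with 1 nM of a 5′-radiolabelled pool with 7 randomized nucleotides and DNA-annealed flanks.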

Binder | binding signal
B1 | 0.00205 KA relative to UGCAUGU
B2 | 0.0139 KA relative to UGCAUGU
B3 | 0.0126 KA relative to UGCAUGU
B4 | 0.0143 KA relative to UGCAUGU
B5 | 0.00341 KA relative to UGCAUGU
B6 | 0.00528 KA relative to UGCAUGU
B7 | 0.019 KA relative to UGCAUGU
B8 | 0.00236 KA relative to UGCAUGU
B9 | 0.000938 KA relative to UGCAUGU
B10 | 0.00695 KA relative to UGCAUGU
B11 | 0.00415 KA relative to UGCAUGU
B12 | 0.0151 KA relative to UGCAUGU
B13 | 0.00483 KA relative to UGCAUGU
B14 | 0.0228 KA relative to UGCAUGU
B15 | 0.00381 KA relative to UGCAUGU
B16 | 0.00181 KA relative to UGCAUGU

Binder | binding signal
B17 | 0.00841 KA relative to UGCAUGU
B18 | 0.00879 KA relative to UGCAUGU
B19 | 0.00539 KA relative to UGCAUGU
B20 | 0.00494 KA relative to UGCAUGU
B21 | 0.00118 KA relative to UGCAUGU
B22 | 0.00616 KA relative to UGCAUGU
B23 | 0.00633 KA relative to UGCAUGU
B24 | 0.0037 KA relative to UGCAUGU
B25 | 0.0121 KA relative to UGCAUGU
B26 | 0.0143 KA relative to UGCAUGU
B27 | 0.00909 KA relative to UGCAUGU
B28 | 0.00495 KA relative to UGCAUGU
B29 | 0.0207 KA relative to UGCAUGU
B30 | 0.00171 KA relative to UGCAUGU
B31 | 0.0083 KA relative to UGCAUGU
